The other results are listed elsewhere or left out. The energies were worked out here from pooled read counts, against the library average; single values are noisy.

This test addresses T1, Pho4 (S. cerevisiae) (UniProt P07270).
T1 sequence: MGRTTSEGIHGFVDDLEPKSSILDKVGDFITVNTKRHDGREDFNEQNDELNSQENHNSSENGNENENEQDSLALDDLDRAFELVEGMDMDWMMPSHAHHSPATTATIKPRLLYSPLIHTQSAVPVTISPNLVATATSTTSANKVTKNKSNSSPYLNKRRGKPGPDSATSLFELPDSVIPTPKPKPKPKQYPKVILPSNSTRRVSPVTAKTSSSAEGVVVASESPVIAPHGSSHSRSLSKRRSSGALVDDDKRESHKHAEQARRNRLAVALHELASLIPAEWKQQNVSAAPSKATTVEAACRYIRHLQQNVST
Nature of the test: relative binding free energy (BET-seq); higher = weaker binding. To be noted: reference: library average.
For TTCTACACGTGTTGTA, the “relative binding free energy” value is 0.08 kcal/mol. On to ATTTTCACGTGGATAA, for which the “relative binding free energy” value was 0.18 kcal/mol.

GGATACACGTGTTGAG: the “relative binding free energy” value was 0.06 kcal/mol. The value for TTTCGCACGTGTTAAG was 0.01 kcal/mol; that for TGGATCACGTGGATGA was 0.15 kcal/mol; that for TCTGGCACGTGTTTCG was -0.05 kcal/mol.

For GTTGGCACGTGTGCGA, the “relative binding free energy” value is -0.06 kcal/mol. The value for CGGGGCACGTGGTACG was -0.25 kcal/mol; that for GAAGTCACGTGTTGGG was 0.21 kcal/mol; that for CGTTTCACGTGGTTGG was 0.18 kcal/mol. The value for TGCGGCACGTGAGAGG was 0.18 kcal/mol. Turning to TATTACACGTGCGTTT, the “relative binding free energy” value stood at 0.08 kcal/mol.

Consider GTGCTCACGTGGTAGG, for which the “relative binding free energy” value worked out at 0.27 kcal/mol. Consider GCGTGCACGTGTTATG, for which the “relative binding free energy” value came to 0.04 kcal/mol.

On to TAAGACACGTGGGATG, for which the “relative binding free energy” value is -0.15 kcal/mol. With TTGGTCACGTGGCGTG, the “relative binding free energy” value was 0.01 kcal/mol. The value for ATAATCACGTGGGGTG was -0.02 kcal/mol; that for TCGTTCACGTGAAGTT was 0.4 kcal/mol; that for GGGATCACGTGGGCAT was 0.13 kcal/mol. For TTTGGCACGTGCTGCG, the “relative binding free energy” value was -0.25 kcal/mol. As to ATTAGCACGTGGGTCA, the “relative binding free energy” value is -0.27 kcal/mol. Consider TGGGGCACGTGCCAGT, for which the “relative binding free energy” value was -0.19 kcal/mol. The value for ATATACACGTGTTTAG was -0.16 kcal/mol; that for TTGTGCACGTGGGGTT was -0.08 kcal/mol.

TGATTCACGTGGTCAT: the “relative binding free energy” value worked out at 0.22 kcal/mol.

Turning to AGGGTCACGTGAGTGA, the “relative binding free energy” value came to 0.31 kcal/mol. The value for TGGTACACGTGGCGTA was -0.16 kcal/mol. The value for AGAGACACGTGGTATG was -0.12 kcal/mol; that for TGTTACACGTGCCGGG was -0.09 kcal/mol.

Consider GTGGTCACGTGGACGT, for which the “relative binding free energy” value worked out at 0.16 kcal/mol. For the sequence ATTAGCACGTGAGGTG, the “relative binding free energy” value turned out to be 0.13 kcal/mol. As to ATTATCACGTGTGTAG, the “relative binding free energy” value was 0.12 kcal/mol. On to TTGACCACGTGGGGTG, for which the “relative binding free energy” value was -0.26 kcal/mol.

Take AGTGACACGTGGTTCG: the “relative binding free energy” value was 0 kcal/mol. The value for GGTATCACGTGTAAAG was 0.29 kcal/mol; that for GGGAGCACGTGGGGAT was -0.02 kcal/mol; that for TGGTACACGTGTACGG was -0.04 kcal/mol. The value for TTTGGCACGTGGATGA was 0.04 kcal/mol; that for TAGTTCACGTGTTTTA was 0.21 kcal/mol.

With TTGCTCACGTGAGTAA, the “relative binding free energy” value came to 0.45 kcal/mol. Consider GGGTGCACGTGAAATT, for which the “relative binding free energy” value stood at 0.22 kcal/mol.

TCGGGCACGTGTATAG: the “relative binding free energy” value was -0.09 kcal/mol. The value for ACTTGCACGTGTGGGA was 0.08 kcal/mol; that for GGGTTCACGTGAGCTT was 0.5 kcal/mol; that for TTTGTCACGTGCATAT was 0.1 kcal/mol. The value for AAGGGCACGTGACTGG was -0.1 kcal/mol; that for GGGATCACGTGTTATA was 0.03 kcal/mol; that for TTTTTCACGTGTACAA was 0.18 kcal/mol. For the sequence CGTGTCACGTGATGGT, the “relative binding free energy” value is 0.34 kcal/mol.

With AATGGCACGTGTGGGG, the “relative binding free energy” value turned out to be 0.02 kcal/mol.

Consider GTTTGCACGTGTAATG, for which the “relative binding free energy” value amounted to 0.25 kcal/mol. With ACTTGCACGTGTGGTC, the “relative binding free energy” value turned out to be 0.11 kcal/mol. The value for TAGCGCACGTGGGCGG was -0.27 kcal/mol; that for GTGCTCACGTGCTGTG was 0.22 kcal/mol. Take AATTTCACGTGGCTTT: the “relative binding free energy” value turned out to be 0.2 kcal/mol. As to GGGCACACGTGTCGTG, the “relative binding free energy” value was 0.07 kcal/mol.

Take TGGACCACGTGGGGAG: the “relative binding free energy” value is -0.05 kcal/mol. The value for ACTGGCACGTGTTTGT was -0.26 kcal/mol; that for AGAGGCACGTGCTAGT was -0.15 kcal/mol; that for GTTCCCACGTGGGGTT was -0.09 kcal/mol. TCTGTCACGTGGAGGG: the “relative binding free energy” value came out at 0.1 kcal/mol.

Take GGACTCACGTGAGGGG: the “relative binding free energy” value came out at 0.4 kcal/mol. For TGTAGCACGTGCTTGA, the “relative binding free energy” value was -0.17 kcal/mol.

In the case of GAGAACACGTGTGTTT, the “relative binding free energy” value was 0.01 kcal/mol. The value for AGCTGCACGTGTTAGG was 0 kcal/mol; that for GAATGCACGTGGGTAG was -0.03 kcal/mol; that for GCTGACACGTGAGGGG was 0.24 kcal/mol. The value for ATGCTCACGTGTGTAT was 0.13 kcal/mol; that for GTTATCACGTGTGATC was 0.38 kcal/mol. The value for TCGGGCACGTGAAGGA was 0.11 kcal/mol. Take GACGGCACGTGCGGGT: the “relative binding free energy” value came to 0.02 kcal/mol.

On to TATTTCACGTGTGACA, for which the “relative binding free energy” value worked out at 0.31 kcal/mol. Turning to TTTTACACGTGTTTGC, the “relative binding free energy” value stood at 0.03 kcal/mol.

TGTATCACGTGTTGCG: the “relative binding free energy” value was 0.14 kcal/mol. The value for AATCACACGTGTGTGT was 0.1 kcal/mol.

On to TTGTACACGTGGCGAA, for which the “relative binding free energy” value came out at 0.02 kcal/mol.

Consider AAACTCACGTGTTTGT, for which the “relative binding free energy” value came to 0.12 kcal/mol. Regarding TTTGTCACGTGGTGAA, the “relative binding free energy” value worked out at 0.01 kcal/mol.

With GAATACACGTGTCGGT, the “relative binding free energy” value amounted to 0.12 kcal/mol.

On to TATTTCACGTGGTTTA, for which the “relative binding free energy” value was 0.25 kcal/mol.

On to GTATGCACGTGTTCTT, for which the “relative binding free energy” value turned out to be 0.03 kcal/mol.

Consider TGGTGCACGTGTCGGC, for which the “relative binding free energy” value is 0.04 kcal/mol. The value for GAGCACACGTGGTGTT was 0.1 kcal/mol; that for TGGTTCACGTGTGCGA was 0.36 kcal/mol.

In the case of CTTGGCACGTGTTTAT, the “relative binding free energy” value is -0.14 kcal/mol. The value for TGATGCACGTGCGTAT was -0.06 kcal/mol; that for GTCGGCACGTGGGTCG was -0.21 kcal/mol; that for GGTATCACGTGCGGTT was 0.16 kcal/mol. For the sequence TATGGCACGTGCTATA, the “relative binding free energy” value is -0.15 kcal/mol. The value for AGGGGCACGTGAATAA was 0.16 kcal/mol; that for TGAAGCACGTGTCAGT was -0.02 kcal/mol.

Consider TGTACCACGTGAGAGT, for which the “relative binding free energy” value was 0.31 kcal/mol. For the sequence TCGGACACGTGTAGGT, the “relative binding free energy” value turned out to be 0.01 kcal/mol. The value for GGGAGCACGTGGAGGT was -0.18 kcal/mol; that for TAGGTCACGTGTAGGG was 0.14 kcal/mol. Regarding GGGGACACGTGGTATA, the “relative binding free energy” value was -0.01 kcal/mol. As to GGGCGCACGTGGAATG, the “relative binding free energy” value worked out at 0.04 kcal/mol. The value for ACATGCACGTGAAGGG was 0.2 kcal/mol; that for TTGCGCACGTGTTGAT was 0.07 kcal/mol.

As for ACGTTCACGTGTATGA, the “relative binding free energy” value turned out to be 0.32 kcal/mol.

CGATGCACGTGATTGT: the “relative binding free energy” value stood at 0.04 kcal/mol.

As to GGTAACACGTGTAGGT, the “relative binding free energy” value came to 0.09 kcal/mol.

For the sequence CTGTCCACGTGGTGTT, the “relative binding free energy” value was -0.21 kcal/mol. Take TGAGGCACGTGGTCGC: the “relative binding free energy” value is -0.21 kcal/mol. For the sequence TTTGGCACGTGCAGCG, the “relative binding free energy” value is -0.11 kcal/mol. The value for CGTATCACGTGGTTCG was 0.04 kcal/mol; that for CGGACCACGTGGGTGT was -0.09 kcal/mol. The value for ATGTTCACGTGTTGAT was 0.22 kcal/mol. In the case of GTTTCCACGTGGTGTT, the “relative binding free energy” value amounted to 0.07 kcal/mol. The value for TGTAACACGTGATTAA was 0.18 kcal/mol; that for GTATTCACGTGTTCTA was 0.47 kcal/mol; that for TTAGACACGTGGTGAA was 0 kcal/mol. The value for AATTGCACGTGGCGTA was -0.15 kcal/mol. The value for ACGGGCACGTGACGGT was 0.07 kcal/mol; that for ATGTTCACGTGGATAA was 0.29 kcal/mol. CGATGCACGTGTGGGA: the “relative binding free energy” value stood at 0.07 kcal/mol. Turning to TTTGACACGTGGTACA, the “relative binding free energy” value came to 0.01 kcal/mol. TTTGACACGTGTCATG: the “relative binding free energy” value is 0.11 kcal/mol. As to GCGTCCACGTGGGGCG, the “relative binding free energy” value was -0.15 kcal/mol.

Take GGGTTCACGTGAGATA: the “relative binding free energy” value stood at 0.52 kcal/mol. In the case of AAGGACACGTGGCTGT, the “relative binding free energy” value is -0.09 kcal/mol. Regarding TGTTGCACGTGCGTCT, the “relative binding free energy” value was -0.07 kcal/mol. TTTGTCACGTGTAGGC: the “relative binding free energy” value came out at 0.17 kcal/mol. Regarding TACGACACGTGTTTTT, the “relative binding free energy” value is 0.11 kcal/mol.

Take AGTTGCACGTGTAGCG: the “relative binding free energy” value is -0.11 kcal/mol. For the sequence CATGACACGTGGGGTC, the “relative binding free energy” value was -0.12 kcal/mol. The value for CGGTACACGTGAAGGT was 0.32 kcal/mol; that for CGGGGCACGTGTATAT was 0.03 kcal/mol; that for TTCCTCACGTGGGTGT was 0 kcal/mol.

Turning to GTTGACACGTGGGGTC, the “relative binding free energy” value is -0.02 kcal/mol.

Consider GATAGCACGTGGTAGT, for which the “relative binding free energy” value is -0.16 kcal/mol. With AATCGCACGTGGTTTT, the “relative binding free energy” value was determined as 0.06 kcal/mol. The value for CGTGTCACGTGTGCTG was 0.06 kcal/mol; that for TGTAGCACGTGTACGG was 0.1 kcal/mol; that for GCAGGCACGTGTGTCG was 0.02 kcal/mol.

In the case of GGGTGCACGTGGGATC, the “relative binding free energy” value is -0.03 kcal/mol. The value for TTGGTCACGTGGTATC was -0.08 kcal/mol; that for GGAGACACGTGTTCGG was -0.02 kcal/mol; that for TGAGTCACGTGTGGGA was 0.23 kcal/mol.

Turning to GTGAGCACGTGGATTT, the “relative binding free energy” value turned out to be 0.02 kcal/mol. The value for GGAAGCACGTGTGTGA was -0.14 kcal/mol; that for CGTTTCACGTGTGCGT was 0.24 kcal/mol. On to GATATCACGTGGATTA, for which the “relative binding free energy” value turned out to be 0.24 kcal/mol. For the sequence CTGGTCACGTGTGATG, the “relative binding free energy” value came out at 0.22 kcal/mol.

Consider GCCGGCACGTGGTTTG, for which the “relative binding free energy” value was -0.16 kcal/mol. The value for TGTATCACGTGGGTTC was 0.02 kcal/mol.

(Values after the BET-seq Pho4 binding data (Le et al. 2018).)
